Test results taken from the antibiotic and cytotoxicity screens of Wong et al. (2023).
This is one part of the list.

The molecules below were run on HSkMC (human skeletal muscle cells) (assay: cytotoxicity call (relative viability < 0.9)). Conditions: 10 µM.
C[C@H]1CN([C@@H](C)CO)C(=O)c2cccc(NS(=O)(=O)c3ccccc3)c2O[C@H]1CN(C)Cc1ccc(Oc2ccccc2)cc1 was tested, and the cytotoxicity call was “inactive”. With C[C@@H]1CN([C@H](C)CO)C(=O)c2cccc(NC(=O)C3CCCCC3)c2O[C@@H]1CN(C)S(=O)(=O)c1cn(C)cn1 the cytotoxicity call was “inactive”. C[C@@H]1CCCCO[C@H](CN(C)C(=O)Nc2ccc(F)cc2)[C@H](C)CN([C@H](C)CO)C(=O)c2cc(NC(=O)c3ccncc3)ccc2O1 was tested, and the cytotoxicity call was “inactive”. In the case of O=C(O)CCN1CCCC1=O, the cytotoxicity call was “inactive”. C[C@@H]1CCCCO[C@@H](CN(C)S(=O)(=O)c2cccs2)[C@@H](C)CN([C@@H](C)CO)C(=O)c2cc(NC(=O)NC3CCCCC3)ccc2O1 was tested, and the cytotoxicity call was “inactive”. In the case of Cc1ccc(S(=O)(=O)N2C[C@H](O)COC[C@@H]3O[C@@H](CC(=O)NCc4ccc5c(c4)OCO5)CC[C@H]32)cc1, the cytotoxicity call was “inactive”. In the case of C[C@@H]1CN([C@@H](C)CO)C(=O)Cc2cc(NC(=O)Nc3ccc(F)cc3)ccc2O[C@@H]1CN(C)C(=O)Nc1ccc(C(F)(F)F)cc1, the cytotoxicity call was “inactive”. For COc1ccc(CC2c3cc(OC)c(OC)cc3CC[N+]2(C)CCC(=O)OCCCCCOC(=O)CC[N+]2(C)CCc3cc(OC)c(OC)cc3C2Cc2ccc(OC)c(OC)c2)cc1OC.O=S(=O)([O-])c1ccccc1.O=S(=O)([O-])c1ccccc1 (stereo not drawn), the cytotoxicity call was “inactive”. In the case of CN1CCN(C(=O)c2nn(C)c3c2CCN(S(C)(=O)=O)C3)CC1, the cytotoxicity call was “inactive”.

What follows are molecules tested on S. aureus RN4220 (assay: growth inhibition call (relative growth <= 0.2)). Conditions: 50 µM.
For Cc1cn(CCC#N)c2ccccc12, the growth inhibition call was “inactive”. In the case of CC(C)NC(=O)Nc1ccc2c(c1)C(=O)N([C@H](C)CO)C[C@H](C)[C@@H](CN(C)CC1CCCCC1)OCCCC[C@H](C)O2, the growth inhibition call was “inactive”. For C[C@@H]1CCCCO[C@H](CN(C)Cc2ccc3c(c2)OCO3)[C@@H](C)CN([C@H](C)CO)C(=O)c2cc(NC(=O)Nc3ccc4c(c3)OCO4)ccc2O1, the growth inhibition call was “inactive”. With COc1ccc2c3c([nH]c2c1)[C@H](CO)N(C[C@]13CN(Cc2ccccc2)C1)S(=O)(=O)c1cn(cn1)C the growth inhibition call was “inactive”. For CC(=O)NCCCC[C@@H]1NC(=O)[C@@H]2C[C@H](C(=O)NCCCCN(C)C)[C@H](c3cccc(OCCO)c3)N2C1=O, the growth inhibition call was “inactive”. With C[C@@H]1CCCCO[C@H](CN(C)C(=O)C2CCCCC2)[C@H](C)CN([C@H](C)CO)C(=O)c2cc(NS(=O)(=O)c3cccs3)ccc2O1 the growth inhibition call was “inactive”. For COc1ccccc1S(=O)(=O)N[C@H]1C=C[C@H](CC(=O)N2CCN(C)CC2)O[C@H]1CO, the growth inhibition call was “inactive”. In the case of C[C@H](CO)N1C[C@H](C)[C@@H](CN(C)Cc2ccc(C(F)(F)F)cc2)Oc2ccc(NC(=O)Nc3ccc4c(c3)OCO4)cc2CC1=O, the growth inhibition call was “inactive”. For COc1ccc(NC(=O)Nc2ccc3c(c2)C(=O)N([C@@H](C)CO)C[C@@H](C)[C@@H](CN(C)S(=O)(=O)c2ccc(OC)cc2)OCCCC[C@H](C)O3)cc1, the growth inhibition call was “inactive”. For C[C@@H]1CN([C@H](C)CO)C(=O)c2cccc(NS(=O)(=O)c3cn(C)cn3)c2O[C@H]1CN(C)Cc1ccc(C(=O)O)cc1, the growth inhibition call was “inactive”. With CC(C)(C)OC(=O)CC[C@]12N=C(c3ccc(OCCCO)cc3)O[C@H]1c1ccccc1CN(C(=O)c1ccccc1)C2=O the growth inhibition call was “inactive”. In the case of Cc1ccc(S(=O)(=O)Nc2ccc3c(c2)CC(=O)N([C@@H](C)CO)C[C@@H](C)[C@H](CN(C)Cc2ccc(Cl)c(Cl)c2)O3)cc1, the growth inhibition call was “inactive”. C[C@H](CO)N1C[C@H](C)[C@H](CN(C)C(=O)Nc2ccccc2)Oc2ccc(NC(=O)C3CC3)cc2CC1=O was tested, and the growth inhibition call was “inactive”. In the case of O=C(C[C@H]1CC[C@H]2[C@@H](COC[C@H](O)CN2Cc2ccccc2F)O1)N[C@H]1CCN(Cc2ccccc2)C1, the growth inhibition call was “inactive”. In the case of CC(=O)N[C@@H]1CC[C@H](CCNC(=O)C2CC2)O[C@H]1CO, the growth inhibition call was “inactive”. For C[C@@H]1CN([C@H](C)CO)C(=O)c2cc(NC(=O)CCN3CCOCC3)ccc2O[C@@H]1CN(C)Cc1ccccc1, the growth inhibition call was “inactive”. For CCCNC(=O)c1cc2c(c(-c3cccc(-c4cccc(F)c4)c3)n1)[C@@H](CCO)N([S@](=O)C(C)(C)C)C2, the growth inhibition call was “inactive”. With CC(C)NC(=O)N(C)C[C@H]1OCCCC[C@@H](C)Oc2ccc(NC(=O)Nc3cccc4ccccc34)cc2C(=O)N([C@H](C)CO)C[C@@H]1C the growth inhibition call was “inactive”. O=C(C[C@H]1C[C@H]2c3cc(NS(=O)(=O)c4ccc(F)cc4)ccc3O[C@H]2[C@H](CO)O1)NCc1ccc(Oc2ccccc2)cc1 was tested, and the growth inhibition call was “inactive”. In the case of COCC#Cc1ccc2c(c1)O[C@H](CN(C)Cc1ccccc1F)[C@@H](C)CN([C@H](C)CO)S2(=O)=O, the growth inhibition call was “inactive”. For C=CCC[C@H](Cc1ccc(F)cc1)C(=O)O[C@@H](CNC(=O)[C@@H](CC=C)CC(=O)N[C@H](CO)Cc1ccccc1)c1ccccc1, the growth inhibition call was “inactive”. In the case of NNC(=O)c1ccc2c(=O)[nH][nH]c(=O)c2c1, the growth inhibition call was “inactive”. Cc1noc(C)c1NC(=O)N(C)C[C@@H]1Oc2c(NS(=O)(=O)c3ccccc3)cccc2C(=O)N([C@@H](C)CO)C[C@H]1C was tested, and the growth inhibition call was “inactive”. In the case of COc1ccc(NC(=O)N(C)C[C@@H]2OCCCC[C@H](C)Oc3ccc(NC(=O)c4ccncc4)cc3C(=O)N([C@@H](C)CO)C[C@H]2C)cc1, the growth inhibition call was “inactive”. With Cc1ccc(S(=O)(=O)Nc2ccc3c(c2)C(=O)N([C@@H](C)CO)C[C@@H](C)[C@@H](CN(C)C(=O)Nc2cccc4ccccc24)OCCCC[C@H](C)O3)cc1 the growth inhibition call was “inactive”. In the case of COc1ccc(S(=O)(=O)N(C)C[C@@H]2Oc3ccc(NC(=O)NC(C)C)cc3CC(=O)N([C@H](C)CO)C[C@H]2C)cc1, the growth inhibition call was “inactive”. In the case of Cc1ccccc1S(=O)(=O)N1C[C@H](O)COC[C@H]2O[C@@H](CC(=O)NCCc3ccccc3)CC[C@@H]21, the growth inhibition call was “inactive”. For COCC#Cc1cnc2c(c1)C(=O)N([C@H](C)CO)C[C@H](C)[C@@H](CN(C)C(=O)c1cnccn1)O2, the growth inhibition call was “inactive”. COc1cc(C=CC(=O)O)ccc1O was tested, and the growth inhibition call was “inactive”. For CC(C)NC(=O)N(C)C[C@H]1OCc2cn(nn2)CCCC(=O)N([C@H](C)CO)C[C@@H]1C, the growth inhibition call was “inactive”. In the case of C[C@H]1CN([C@@H](C)CO)C(=O)c2cccc(NS(=O)(=O)c3ccccc3)c2O[C@H]1CN(C)Cc1ccc(Oc2ccccc2)cc1, the growth inhibition call was “inactive”. For C[C@@H]1CN([C@H](C)CO)C(=O)c2cccc(NC(=O)C3CCCCC3)c2O[C@@H]1CN(C)S(=O)(=O)c1cn(C)cn1, the growth inhibition call was “inactive”. With C[C@@H]1CCCCO[C@H](CN(C)C(=O)Nc2ccc(F)cc2)[C@H](C)CN([C@H](C)CO)C(=O)c2cc(NC(=O)c3ccncc3)ccc2O1 the growth inhibition call was “inactive”. In the case of O=C(O)CCN1CCCC1=O, the growth inhibition call was “inactive”. In the case of C[C@@H]1CCCCO[C@@H](CN(C)S(=O)(=O)c2cccs2)[C@@H](C)CN([C@@H](C)CO)C(=O)c2cc(NC(=O)NC3CCCCC3)ccc2O1, the growth inhibition call was “inactive”. Cc1ccc(S(=O)(=O)N2C[C@H](O)COC[C@@H]3O[C@@H](CC(=O)NCc4ccc5c(c4)OCO5)CC[C@H]32)cc1 was tested, and the growth inhibition call was “inactive”. With C[C@@H]1CN([C@@H](C)CO)C(=O)Cc2cc(NC(=O)Nc3ccc(F)cc3)ccc2O[C@@H]1CN(C)C(=O)Nc1ccc(C(F)(F)F)cc1 the growth inhibition call was “inactive”. With COc1ccc(CC2c3cc(OC)c(OC)cc3CC[N+]2(C)CCC(=O)OCCCCCOC(=O)CC[N+]2(C)CCc3cc(OC)c(OC)cc3C2Cc2ccc(OC)c(OC)c2)cc1OC.O=S(=O)([O-])c1ccccc1.O=S(=O)([O-])c1ccccc1 (stereo not drawn) the growth inhibition call was “inactive”. CN1CCN(C(=O)c2nn(C)c3c2CCN(S(C)(=O)=O)C3)CC1 was tested, and the growth inhibition call was “inactive”.
